{
  "source": "PubChem BioAssay AID686979",
  "about": "(National Center for Advancing Translational Sciences (NCATS), 2013)",
  "note": "In all, about 420,000 compounds went through this assay and about 50,000 (12%) were called active. This list was built around the results that the source calls inconclusive (neither active nor inactive); the mix of calls is not that of the screen. Calls follow the shape of the dose curve; as a rule, active = well fitted inhibition curve with a large enough effect; inconclusive = small, poorly fitted or top-dose-only effect; inactive = flat fitted curve, though single readings scatter. Potencies of inconclusive entries are left out as doubtful fits. Potency is read from the fitted curve at half-maximal effect; tags tell the direction and shape of the fitted curve.",
  "data": [
    {"experiment": "qHTS for Inhibitors of human tyrosyl-DNA phosphodiesterase 1 (TDP1): qHTS in cells in presence of CPT; also: nearly all actives have a fitted effect of over 55% in size", "conditions": "chicken DT40 Tdp1-/-;hTDP1 cells + 20 nM CPT, ATP luminescence, 48 h; series mostly up to 46.2 µM", "method_in_brief": "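Chicken DT40 Tdp1-/- cells complemented with human TDP1, 400 cells/well, exposed to compounds plus 20 nM camptothecin for at least 48 h at 37 C; viability read as ATP content by CellTiter-Glo luminescence.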", "values": [
      {"smiles": "O=C(Nc1nnc(C2=COCCO2)o1)c1ccc(F)cc1", "Potency": "inconclusive [inhibitor, single point]"},
      {"smiles": "O=C(CCNC(=O)c1ccc(Cl)cc1)Nc1cc(C(F)(F)F)ccc1N1CCOCC1", "Potency": "active: 25.9 µM"},
      {"smiles": "O=C(Nc1cccc(C(F)(F)F)c1)c1sc(Cl)nc1C(F)(F)F", "Potency": "active: 16.4 µM"},
      {"smiles": "CC(C)c1ccc(NC(=O)c2cc3c(=O)n(C)c4ccccc4c3n2C)cc1", "Potency": "inconclusive [inhibitor, single point]"},
      {"smiles": "CCCCCCOC(=O)C(C#N)c1nc2ccccc2nc1N1CCCCC1", "note": "(stereo not given)", "Potency": "inconclusive [inhibitor, single point]"},
      {"smiles": "CC1CN(C(=O)COC(=O)Cc2c(Cl)cccc2Cl)CC(C)O1", "note": "(stereo not given)", "Potency": "inactive"},
      {"smiles": "COCCNC(=O)CSc1nnc(-c2ccc(OC)c(OC)c2)c(-c2ccc(OC)c(OC)c2)n1", "Potency": "inconclusive [inhibitor, single point]"},
      {"smiles": "CCN1C(=O)[C@H]2[C@@H](c3ccc(OC)cc3)N[C@]3(CCCN(Cc4ccc(OC)cc4)C3=O)[C@H]2C1=O", "Potency": "inactive"},
      {"smiles": "O=C(CN1C(=O)NC(CCc2ccccc2)C1=O)Nc1cccc(Br)c1", "note": "(stereo not given)", "Potency": "inconclusive [inhibitor, single point]"},
      {"smiles": "O=C(c1ccccc1F)N(Cc1ccc(F)cc1)C1CCS(=O)(=O)C1", "note": "(stereo not given)", "Potency": "inactive"},
      {"smiles": "CCOc1ccc(N2CC(c3nc4ccccc4n3CCCOc3ccc(OC)cc3)CC2=O)cc1", "note": "(stereo not given)", "Potency": "inconclusive [inhibitor, single point]"},
      {"smiles": "COc1ccc(Br)c2c1-c1nc(NC(=O)c3ccccc3SC)sc1C2", "Potency": "inconclusive [inhibitor, single point]"},
      {"smiles": "COCCSc1ccccc1C(=O)N1CCCC(C)C1", "note": "(stereo not given)", "Potency": "inactive"},
      {"smiles": "O=S(=O)(c1ccccc1)c1nc(-c2cccc(Cl)c2)oc1NCc1ccccc1", "Potency": "inconclusive [inhibitor, single point]"},
      {"smiles": "COc1cc(C(=O)Nc2cc(C(F)(F)F)ccc2Cl)cc(OC)c1OC", "Potency": "inconclusive [inhibitor, single point]"},
      {"smiles": "Cc1c(C(=O)NCCSCc2cccc(C(F)(F)F)c2)cnn1-c1ccc(Cl)cc1", "Potency": "inconclusive [inhibitor, single point]"},
      {"smiles": "COCc1c(C(=O)NC2CCCC2)cnn1-c1nccc(-c2cccs2)n1", "Potency": "inconclusive [inhibitor, single point]"},
      {"smiles": "Cn1c(Cc2ccccc2)[n+](C)c2ccccc21", "Potency": "inconclusive [inhibitor, single point]"},
      {"smiles": "O=C(CNc1cccc2ccccc12)N/N=C/c1ccc([N+](=O)[O-])o1", "Potency": "active: 6.51 µM"},
      {"smiles": "Nc1ncnc2c1ncn2[C@@H]1O[C@H](CNCc2cccn2-c2nccs2)[C@@H](O)[C@H]1O", "Potency": "inactive"},
      {"smiles": "CC(C)COc1ccc(C(=O)OCC(=O)N(C)CC(=O)Nc2ccc(F)cc2)cc1", "Potency": "inactive"},
      {"smiles": "Cc1n[nH]c(C)c1N1C(=O)c2cccc3c(N4CCCCCC4)ccc(c23)C1=O", "Potency": "inconclusive [inhibitor, single point]"},
      {"smiles": "CC[C@H]1c2[nH]c3ccc(C(C)C)cc3c2[C@@H]2CCN3C(=O)CCC[C@H]1[C@H]23", "Potency": "active: 10 µM"},
      {"smiles": "c1ccc(Nc2scc(-c3ccccc3)[n+]2Cc2ccco2)cc1", "Potency": "active: 16.4 µM"},
      {"smiles": "CCCC[n+]1ccn(-c2nc3c([N+](=O)[O-])cccc3n2C)c1", "Potency": "inactive"},
      {"smiles": "Cc1cccc(-n2nc([N+](=O)[O-])c(=NCc3cccnc3)n2O)c1", "Potency": "active: 11.6 µM"},
      {"smiles": "C[C@@H]1CCC[C@H](C)N1Cc1nc(Cc2ccccc2Cl)no1", "Potency": "active: 14.6 µM"},
      {"smiles": "Cc1cccc(N(Cc2ccccc2)C(=O)c2cccc(S(=O)(=O)N3CC(C)OC(C)C3)c2)c1", "note": "(stereo not given)", "Potency": "active: 11.6 µM"},
      {"smiles": "Cc1ccc(NC2=CC(=O)C(=O)c3ccccc32)c(C)c1", "Potency": "active: 4.61 µM"},
      {"smiles": "O=C(COC(=O)[C@@H]1CCCN1S(=O)(=O)c1ccc(Cl)cc1)NC12CC3CC(CC(C3)C1)C2", "Potency": "inconclusive [inhibitor, single point]"},
      {"smiles": "O=C(NC(=S)Nc1ccc(CN2CCOCC2)cc1)c1cc2ccccc2o1", "Potency": "inconclusive [inhibitor, single point]"},
      {"smiles": "Cc1c(C(=O)NCCN(C)C)oc2c1-c1nn(Cc3ccccc3Cl)cc1CC2", "Potency": "inconclusive [inhibitor, single point]"},
      {"smiles": "O=C(NC1CC1)c1cc(F)c(F)cc1Cl", "Potency": "inactive"},
      {"smiles": "Cc1ccc(-c2nnn(CC(=O)N(c3cccc(O)c3)C(C(=O)NC(C)(C)C)c3cccs3)n2)o1", "note": "(stereo not given)", "Potency": "inconclusive [inhibitor, single point]"},
      {"smiles": "CCCCN1CCC[C@@H]1CNC(=O)c1cc(C#N)c2ccccc2c1OC", "Potency": "inconclusive [inhibitor, partial curve, poor fit]"},
      {"smiles": "CCOc1ccccc1/C=C(/NC(=O)c1ccccc1)C(=O)NC(C)c1ccccc1", "note": "(stereo not given)", "Potency": "active: 23.1 µM"},
      {"smiles": "Cn1c(SCC(=O)Nc2ccc3c(c2)oc2ccccc23)nnc1-c1ccccc1", "Potency": "inconclusive [inhibitor, single point]"},
      {"smiles": "Cc1ccc2[nH]c(=O)c3cc(C(=O)N(C)c4ccccc4C)sc3c2c1", "Potency": "inconclusive [inhibitor, single point]"},
      {"smiles": "CCCCOc1ccc(S(=O)(=O)Nc2cccc(-c3ccc(N4CCOCC4)nn3)c2)cc1", "Potency": "active: 20.6 µM"},
      {"smiles": "Cn1c(NCc2ccco2)nc2c1c(=O)n(Cc1ccc(Br)cc1)c(=O)n2C", "Potency": "inconclusive [inhibitor, single point]"},
      {"smiles": "CCOC(=O)Cc1csc(N/N=C\\c2ccc(N(C)C)cc2)n1", "Potency": "inactive"},
      {"smiles": "COc1ccccc1-c1c(C)nn2c(N3CCN(c4ccc(Cl)cc4)CC3)cc(C)nc12", "Potency": "inactive"},
      {"smiles": "CC(C)C(=O)NC(c1ccccc1Cl)c1c(O)ccc2ccccc12", "note": "(stereo not given)", "Potency": "inconclusive [inhibitor, partial curve, poor fit]"},
      {"smiles": "O=C(/C=C/c1ccccc1)NCCSCc1ccccc1Cl", "Potency": "inconclusive [inhibitor, single point]"},
      {"smiles": "Cc1c(N=O)c(-c2ccccc2)n(O)[n+]1[O-]", "Potency": "inconclusive [inhibitor, single point]"}
    ]}
  ]
}
